Out of some 48,000 compounds screened, about 120 (0.25%) were called active. Roughly 4% stayed inconclusive and do not appear here. Calls follow the shape of the dose curve; as a rule, active = well fitted activation curve with a large enough effect; inconclusive = small, poorly fitted or top-dose-only effect, or another doubt; inactive = no such curve, though single readings can be large or run the other way. The list shows a part of the results.
Experiment: Primary qHTS for Identification of Small Molecule Activators of Huntingtin-Antisense Promoter Activity; also: nearly all actives have a fitted effect of over 55% in size
Conditions: HEK293 HTT-AS promoter firefly luciferase reporter, 24 h; series mostly up to 57.5 µM; activity change, positive = activation: at the top concentration
Method in brief: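 Quantitative HTS used concentration series of up to 57.5 uM final on HEK293 luciferase reporter cells, 24 h at 37 degrees C. Readout was Dual-Glo firefly luminescence.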

Activity change, positive = activation, inactive:
CCOC(=O)c1c(S(=O)(=O)N2CCC(C(=O)Nc3ncccc3C)CC2)c(C)n(C)c1C 0%
CCOC(=O)c1cc(-c2ccc(OC)cc2)n(CCC(=O)NC2CCCCC2)c1C -29.4%
COc1ccc2c(CNC3CCCCCC3)c(C(=O)O)n(Cc3ccccc3F)c2c1 -21.6%
Cc1c(C(=O)OC2CCCCC2)[nH]c2c1C(=O)CC(c1ccc(C(C)(C)C)cc1)C2 (stereo not drawn) -5.26%
CCC(=O)N1CCc2cc(Br)cc(S(=O)(=O)CCC(=O)N3CCN(c4cc(C)ccc4C)CC3)c21 19.2%
CCCc1nnc(NC(=O)c2cc(=O)c3cc(C)c(C)cc3o2)s1 6.19%
CCOC(=O)c1cnc2ccc(C)cc2c1Nc1ccc(N(CC)CC)cc1 -80.8%
CCOc1ccc(NC(=O)CCCc2nnc3n(C)c(=O)c4sccc4n23)cc1 -7.32%
O=C(NCc1ccccc1F)C(=O)NCC(c1ccco1)S(=O)(=O)c1cccs1 (stereo not drawn) -12.1%
CC1=C(C(=O)Nc2ccccc2)C(c2cccc(Cl)c2)n2nc(SCC(=O)c3ccc(C)cc3)nc2N1 (stereo not drawn) -0.659%
O=C(CSc1nc(-c2ccccc2)nc2c1Cc1ccccc1O2)N1CCCCC1 8.46%
Cc1ccc(Cn2c(=O)n(CCCCC(=O)NCc3ccccc3Cl)c(=O)c3ccccc32)cc1 -48.5%
O=c1[nH]c2ccc(NCc3ccc(-c4ccccc4)o3)cc2[nH]1 -32.2%
Cc1cccc(OCC(=O)Nc2ccccc2C(=O)OCc2cc(=O)n3nc(C)sc3n2)c1 -0.621%
CCOc1ccccc1Nc1sc(C(=O)c2ccccc2)c(N)c1S(=O)(=O)c1ccc(C)cc1 15.8%
O=C(Nc1ccc2oc(-c3ccc4ccccc4c3)nc2c1)c1ccc(Cl)c(Cl)c1 -9.02%
Cc1ccc(CCNC(=O)c2cc3c(-c4ccccc4F)nn(C)c3s2)cc1 -25.2%
COc1ccc(OC)c(NC(=O)c2cn(CC(C)C)c(=O)c3cc(OC)c(OC)cc23)c1 -26.5%
Cc1ccc(NC(=O)c2ccc(Br)cc2)c(C(=O)c2ccccc2)c1 -12.9%
Cc1nc2nc(SCC(=O)NCc3ccccc3)nn2c(C)c1Cc1ccccc1 -19.9%
CC(C)CC(=O)Nc1ccc(Cl)c(-c2nc3ccccc3[nH]2)c1 -17.7%
COc1ccc(OC)c(CNC(=O)CN2C(=O)CCn3nc(-c4cn(C)c5ccccc45)cc32)c1 -1.44%
N#Cc1ccc(NS(=O)(=O)c2ccc(-c3cnc(C4CC4)o3)cc2)cc1 -29.1%
CC(=O)Oc1ccccc1C(=O)O
CCc1cccc(NC(=O)CN2C=NS(=O)(=O)c3ccccc32)c1 -14.1%
CCOc1nc(NC(=O)NS(=O)(=O)Oc2ccccc2Cl)nc(-c2ccccc2)n1 29.9%
Cc1ccc(NC(=O)CCc2c(C)nc3nc(C)nn3c2C)c(Cl)c1 -13.2%
Cc1ccc(C)n1-c1nnc(N2CCCC(C(=O)NCc3ccccc3)C2)s1 (stereo not drawn) 3.55%
COc1cc2nc(NCC(C)c3ccccc3)n3nc(-c4ccccc4)nc3c2cc1OC (stereo not drawn) -6.89%
CNC(=O)c1ccc(Nc2nnc(-c3ccc(C)c(S(=O)(=O)N4CCOCC4)c3)c3ccccc23)cc1 14.6% [at 11.5 µM, percent change from vehicle, -100% = no light]
CCOC(=O)c1ccccc1NC(=O)N(Cc1ccco1)C1CCN(C(C)=O)CC1 -18.2%
Cc1ccc(N2CC(NC(=O)CCc3ccccc3)CC2=O)cc1 (stereo not drawn) -13.1%
COc1ccccc1C(=O)NC(=O)Nc1ccc(-n2nc(C(F)(F)F)cc2C(F)(F)F)cc1 -28.1%
CC1=C(C(=O)NCc2ccc(Cl)cc2)C2(CCCCCC2)OC1=O -31.8%
COc1cccc(CSc2nc3n(n2)C(c2cccnc2)C(C(=O)Nc2ccccc2C)=C(C)N3)c1 (stereo not drawn) -4.9%
COc1ccc(-c2ccc3c(N)c(C(=O)Nc4cccc(C)c4)sc3n2)cc1 -3.06%
COc1ccccc1C(=O)Nc1ccc(C(=O)OCc2cc(=O)n3ccsc3n2)cc1 24.2%
CCOC(=O)c1sc(NC(=O)c2cc3nc(-c4ccc(Br)cc4)cc(C(F)(F)F)n3n2)c(C(=O)OCC)c1C -32.5%
CCOC(=O)CCn1nc(C)c2c(C)n(-c3ccccc3)nc2c1=O -3.2%
Cc1cccc(N2CCN(C(=O)Cn3c(=O)c4cccn4c4ccc(F)cc43)CC2)c1C -2.59%
COc1cccc(NC(=O)c2cc3c(=O)n(Cc4cccnc4)ccc3nc2C)c1 -2.48%
Cc1ccc(-c2nc(S(=O)(=O)c3ccc(C)cc3)c(SCC(=O)NC3CCCCC3)o2)cc1 -0.116%
COc1ccccc1CNC(=O)CCC1N=C2c3ccccc3N=C(SCC(=O)NCCc3ccc(OC)c(OC)c3)N2C1=O (stereo not drawn) -30.2%
CCc1ccc(-c2cc(C)no2)cc1S(=O)(=O)Nc1ccc(Cl)cc1 -41.9%
COc1ccc(-c2noc(-c3ccc(NC(C)c4ccccc4)c([N+](=O)[O-])c3)n2)cc1OC (stereo not drawn) -6.42%
CCOc1ccccc1CN(CCc1ccc2c(c1)OCO2)Cc1cccc(OC)c1OC -41.4%
CN(C)c1ccc(NC(=O)CSC2=Nc3ccccc3C3=NC(CC(=O)NCc4ccccc4)C(=O)N23)cc1 (stereo not drawn) -8.21%
CCN1CCC(N(Cc2ccc3c(c2)OCO3)C(=O)Nc2ccccc2OC)CC1 -8.41%
CCOC(=O)c1c(C)[nH]c(CCC(=O)NCc2ccccc2C)c1C -9.77%
COc1cccc(C2CC(=O)N3CN(C4CCCCC4)CSC3=C2C#N)c1 (stereo not drawn) -16.2%
COc1cc(NC(=O)C(CCS(C)(=O)=O)N2Cc3ccccc3C2=O)cc(OC)c1OC (stereo not drawn) -0.901%
CCCN1C(=O)c2[nH]nc(-c3ccc(F)cc3)c2C1c1ccccn1 (stereo not drawn) -17.4%
CC1CN(C(=O)N2CCC(C(=O)NC3CCCCCC3)CC2)c2ccccc2O1 (stereo not drawn) -23.9%
O=C(c1ccco1)n1nc(-c2ccccc2)nc1NCc1ccccc1Cl -10.7%
CC(=O)Nc1ccc(S(=O)(=O)NCCc2csc3nc(-c4cccc(C)c4)nn23)cc1 -30.4%
Cc1ccc(N(Cc2cccs2)C(=O)COc2ccccc2[N+](=O)[O-])cc1 -31.3%
Cc1cccc(-c2nc(Cn3c(SCc4cc(C)ccc4C)nc4ccncc43)c(C)o2)c1 -23.1%
CCc1ccc(NC(=O)CSc2nc3ccsc3c(=O)n2C(C)CC)cc1 (stereo not drawn) -32.8%
O=C(NCc1ccccc1Cl)C1CCC(CNS(=O)(=O)c2ccc(Br)s2)CC1 (stereo not drawn) -10.5%
COc1ccc(CCNC(=O)c2nn(C)c3c2CSc2ccccc2-3)cc1OC -21.8%
O=C(NCc1ccccc1)C(=O)NCC(c1cccnc1)N1CCN(c2ccccc2)CC1 (stereo not drawn) -32.1%
Cc1ccc(-c2nn3c(-c4ccc(C)cc4)nnc3c3ccccc23)cc1 -12.5%
CNS(=O)(=O)CCc1ccc2[nH]cc(C3CCN(C)CC3)c2c1
COc1ccccc1-n1c(SCC(=O)Nc2ccc(C)cc2)nc(O)cc1=O 3.01%
O=C(CCCn1c2ccccc2c(=O)c2ccccc21)Nc1ccc(F)cc1Cl -27.3%
COc1cc(CN(C(=O)c2oc3ccccc3c2C)C2CCS(=O)(=O)C2)cc(OC)c1OC (stereo not drawn) 8.07%
O=c1c2cc3c(nc2ncn1Cc1ccccc1F)CCCC3 -5.16%
CCOC(=O)c1cnc2c(ccc3ccccc32)c1Nc1ccc(OC)c(OC)c1 -25%
CCOc1ccc(Cn2c(CNS(=O)(=O)c3ccc([N+](=O)[O-])cc3)nc3cccnc32)cc1 -19.4%
COc1ccc(C(=O)NCCSc2c(C)[nH]c3ccccc23)cc1 -39.5%
COCCn1ccc2c(OCC(=O)NCc3ccc(F)cc3)cccc2c1=O -15.8%
Cc1ccc(NC(=O)Nc2nnc(SCC(=O)N3CCC(C)CC3)s2)cc1 -29.2%
Cc1ccc(N2CC(c3nnc(NC(=O)c4ccco4)s3)CC2=O)cc1C (stereo not drawn) -17.2%
O=C(NC1CCCC1)c1ccc(CSc2nc3ccncc3n2Cc2ccc(F)cc2)cc1 -16.6%
COc1ccc(-n2cc(C(=O)NC(C)c3ccccc3)c3ccccc3c2=O)cc1 (stereo not drawn) 18%
Cc1ccc(NC(=O)Cn2cc(S(=O)(=O)N3CCCC3)c(S(=O)(=O)N3CCCC3)c2)cc1C 18.9% [at 11.5 µM, percent change from vehicle, -100% = no light]
CCCCC[C@H](O)C=C[C@H]1[C@H](O)CC(=O)[C@H]1CC=CCCCC(=O)O -5.11%
CCOc1ccc(NC(=O)c2ccc(-c3cccc(Cl)c3C)o2)cc1 -6.84%
CCOc1ccc(N(CC)S(=O)(=O)N2CCCC(C(=O)NCc3ccc(SC)cc3)C2)cc1 (stereo not drawn) -54.2%
COc1cccc(CNC(=O)NCc2noc3ccc(C)cc23)c1 -17.7%
Cc1ccc(NC(=O)CN2C=NS(=O)(=O)c3ccccc32)c(C)c1 -15%
COc1ccc(N2CCN(C(=O)CCS(=O)(=O)c3cc(Br)cc4c3N(C(=O)C3CC3)CC4)CC2)cc1 -4.88%
COc1ccc(NC(=O)CN2C(=O)COc3ccc(S(=O)(=O)N4CCOCC4)cc32)cc1Cl -14.9%
COc1ccc(NC(=O)Nc2nnc(N3CCCCCC3)s2)c(OC)c1 -9.03%
COc1ccccc1-c1cc(C(F)(F)F)nc(S(=O)(=O)CCCC(=O)Nc2ccc(F)c(Cl)c2)n1 -7.46%
COc1ccc(C(=O)N2CCC(c3c[nH]c4ccccc34)(c3c[nH]c4ccccc34)CC2)cc1 -33.8%
COc1ccc(NC(=O)c2cc(C3CC3)nc3c2c(C)nn3-c2ccc(C)cc2)cc1OC -13.1%
CN(C)c1ccc(CNC(=O)C2CCN(S(=O)(=O)c3cn(C)cn3)CC2)cc1 -2.64%
COc1ccccc1CNC(=O)c1oc2c(c1C)-c1nn(Cc3ccc(Cl)cc3)cc1CC2 -28.6%
Cc1ccc(C)c(CN2C(=O)c3ccccc3S(=O)c3ccc(C(=O)NCCc4ccc(Cl)cc4)cc32)c1 (stereo not drawn) -30.8%
COc1ccc(NC(=O)c2sc3nc(-c4cc5cccc(OC)c5oc4=O)[nH]c(=O)c3c2C)cc1 -5.2%
Cc1c(NS(C)(=O)=O)cccc1-c1nc2ccccc2s1 -26%
Cc1ccccc1CN1C(=O)c2ccccc2S(=O)c2ccc(C(=O)NCc3ccco3)cc21 (stereo not drawn) -21.3%
